# This is one part of the list. Many values rest on one well or one pass, so single values are uncertain.
# System: WM451Lu
# Test: cell count relative to DMSO control; melanoma cells; higher = more viable cells
# Settings: library dose: low library concentration; 72 h
# 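Further: cell number obtained by counting DAPI-stained nuclei in high-throughput microscope images with image analysis software, screen run in 1,536-well plates.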
row,SMILES,cell count
1,"C[C@]1(c2nc3c(C(N)=O)cccc3[nH]2)CCCN1 [Veliparib] + O=C(O)C(=O)Nc1sc2c(c1C(=O)O)CCNC2 [TCS401] (first compound 1.4 µM, partner dose 1.66667 µM)",125%
2,"CO[C@@H]1[C@H](N(C)C(=O)c2ccccc2)C[C@H]2O[C@]1(C)n1c3ccccc3c3c4c(c5c6ccccc6n2c5c31)C(=O)NC4 [Midostaurin] + NC(=O)Nc1cc(-c2cccc(F)c2)sc1C(=O)N[C@H]1CCCNC1 [AZD7762] (first compound 0.08 µM, partner dose 0.02 µM)",112%
3,"CN(C)S(=O)(=O)c1ccc2c(c1)/C(=C/c1cc3c([nH]1)CCCC3)C(=O)N2 + CN(NC(=O)CC(=O)NN(C)C(=S)c1ccccc1)C(=S)c1ccccc1 [STA4783] (first compound 0.4 µM, partner dose 0.006 µM)",92.2%
4,"CO[C@@H]1[C@H](N(C)C(=O)c2ccccc2)C[C@H]2O[C@]1(C)n1c3ccccc3c3c4c(c5c6ccccc6n2c5c31)C(=O)NC4 [Midostaurin] + CC(C)CCN1c2nc(Nc3cc(F)c(O)c(F)c3)ncc2N(C)C(=O)C1C [BID1870] (first compound 0.08 µM, partner dose 0.2 µM)",95.2%
5,"C=CCn1c(=O)c2cnc(Nc3ccc(N4CCN(C)CC4)cc3)nc2n1-c1cccc(C(C)(C)O)n1 + COc1cc2c(Oc3ccc4[nH]c(C)cc4c3F)ncnc2cc1OCCCN1CCCC1 [cediranib] (first compound 0.02 µM, partner dose 0.4 µM)",120%

# Reference: the supplement of paper PMC4604168 (melanoma cell lines)
